{"source": "paper PMC7316778", "about": "(Nature Communications, 2020)", "key": {"[1]": {"molecular_target": "T1, kinase targets in FES^S700C HL-60 neutrophils (Homo sapiens, UniProt P40925)", "T1 sequence (P40925 1-334)": "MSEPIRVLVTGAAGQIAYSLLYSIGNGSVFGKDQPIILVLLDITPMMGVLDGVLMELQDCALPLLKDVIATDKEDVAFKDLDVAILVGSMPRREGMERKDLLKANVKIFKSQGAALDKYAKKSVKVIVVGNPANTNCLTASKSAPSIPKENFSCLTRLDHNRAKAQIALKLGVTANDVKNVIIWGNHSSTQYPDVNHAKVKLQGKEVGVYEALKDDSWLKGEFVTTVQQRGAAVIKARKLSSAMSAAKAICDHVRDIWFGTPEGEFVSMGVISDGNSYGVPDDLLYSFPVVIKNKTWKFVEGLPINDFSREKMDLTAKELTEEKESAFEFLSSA", "format": "cell-based", "settings": "Figure 7c; protein MDHC_HUMAN; 100 nM; listed as WEL028"}, "[2]": {"molecular_target": "T2, kinase targets in FES^S700C HL-60 neutrophils (Homo sapiens, UniProt P57088)", "T2 sequence (P57088 1-247)": "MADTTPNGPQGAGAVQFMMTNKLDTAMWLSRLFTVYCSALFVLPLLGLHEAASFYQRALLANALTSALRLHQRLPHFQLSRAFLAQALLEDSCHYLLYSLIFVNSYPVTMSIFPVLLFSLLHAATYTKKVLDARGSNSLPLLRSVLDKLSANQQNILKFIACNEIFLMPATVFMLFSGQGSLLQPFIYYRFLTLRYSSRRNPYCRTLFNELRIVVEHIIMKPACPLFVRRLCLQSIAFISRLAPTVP", "format": "cell-based", "settings": "Figure 7c; protein TMM33_HUMAN; 100 nM; listed as WEL028"}, "[3]": {"molecular_target": "T3, kinase targets in FES^S700C HL-60 neutrophils (Homo sapiens, UniProt Q04446)", "T3 sequence (Q04446 1-702)": "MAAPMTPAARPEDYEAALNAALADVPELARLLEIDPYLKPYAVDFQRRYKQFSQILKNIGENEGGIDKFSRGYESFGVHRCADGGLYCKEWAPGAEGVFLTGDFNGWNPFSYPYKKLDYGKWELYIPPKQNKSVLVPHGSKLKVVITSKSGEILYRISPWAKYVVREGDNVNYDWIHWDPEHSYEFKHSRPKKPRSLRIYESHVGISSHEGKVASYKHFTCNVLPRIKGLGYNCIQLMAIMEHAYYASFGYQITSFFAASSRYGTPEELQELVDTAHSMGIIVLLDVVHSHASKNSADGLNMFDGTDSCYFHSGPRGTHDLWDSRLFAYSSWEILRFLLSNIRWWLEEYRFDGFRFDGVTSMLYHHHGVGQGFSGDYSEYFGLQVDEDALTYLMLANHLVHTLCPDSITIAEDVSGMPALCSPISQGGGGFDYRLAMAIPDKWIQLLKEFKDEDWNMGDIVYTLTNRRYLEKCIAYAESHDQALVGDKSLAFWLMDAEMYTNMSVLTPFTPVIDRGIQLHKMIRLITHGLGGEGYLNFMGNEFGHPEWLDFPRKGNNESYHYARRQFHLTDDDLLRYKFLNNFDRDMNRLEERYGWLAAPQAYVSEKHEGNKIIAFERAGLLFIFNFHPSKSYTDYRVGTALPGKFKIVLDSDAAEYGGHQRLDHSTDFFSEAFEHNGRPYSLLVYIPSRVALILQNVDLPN", "format": "cell-based", "settings": "protein GLGB_HUMAN; WEL028-treated replicates (c6-c9) vs vehicle replicates (c2-c5, mean 1); Fig. 7 source data"}, "[4]": {"test_system": "SYK Y352, HS1 Y397 and PLCγ2 Y1217 phosphorylation in FES^S700C HL-60 neutrophils", "assay": "Neutrophil stimulation and phosphoprotein analysis", "format": "cell-based, human", "settings": "WEL028 100 nM, 1 h; E. coli MOI 30, 2 min", "experimental": "HL-60 neutrophils were infected as described above, but in 1.5 mL tubes (5 × 10^6 cells per sample, in 1 mL growth medium without antibiotics, supplemented with FcR blocking reagent (1:25)). After indicated infection times, suspensions were immediately centrifuged (2000g, 2 min, 4 °C). Supernatant was completely aspirated and cells were washed (1 mL cold PBS, 2000g, 2 min, 4 °C). Pellets were thoroughly resuspended in 1× Laemmli sample buffer (75 µL), followed by incubation at 95 °C (15 min, 1400 rpm) and brief sonication to reduce sample viscosity. Samples were stored at −20 °C or immediately resolved by SDS-PAGE."}, "[5]": {"molecular_target": "kinase targets in WT HL-60 neutrophils (Homo sapiens, UniProt P0CG39)", "sequence (P0CG39 whole entry)": "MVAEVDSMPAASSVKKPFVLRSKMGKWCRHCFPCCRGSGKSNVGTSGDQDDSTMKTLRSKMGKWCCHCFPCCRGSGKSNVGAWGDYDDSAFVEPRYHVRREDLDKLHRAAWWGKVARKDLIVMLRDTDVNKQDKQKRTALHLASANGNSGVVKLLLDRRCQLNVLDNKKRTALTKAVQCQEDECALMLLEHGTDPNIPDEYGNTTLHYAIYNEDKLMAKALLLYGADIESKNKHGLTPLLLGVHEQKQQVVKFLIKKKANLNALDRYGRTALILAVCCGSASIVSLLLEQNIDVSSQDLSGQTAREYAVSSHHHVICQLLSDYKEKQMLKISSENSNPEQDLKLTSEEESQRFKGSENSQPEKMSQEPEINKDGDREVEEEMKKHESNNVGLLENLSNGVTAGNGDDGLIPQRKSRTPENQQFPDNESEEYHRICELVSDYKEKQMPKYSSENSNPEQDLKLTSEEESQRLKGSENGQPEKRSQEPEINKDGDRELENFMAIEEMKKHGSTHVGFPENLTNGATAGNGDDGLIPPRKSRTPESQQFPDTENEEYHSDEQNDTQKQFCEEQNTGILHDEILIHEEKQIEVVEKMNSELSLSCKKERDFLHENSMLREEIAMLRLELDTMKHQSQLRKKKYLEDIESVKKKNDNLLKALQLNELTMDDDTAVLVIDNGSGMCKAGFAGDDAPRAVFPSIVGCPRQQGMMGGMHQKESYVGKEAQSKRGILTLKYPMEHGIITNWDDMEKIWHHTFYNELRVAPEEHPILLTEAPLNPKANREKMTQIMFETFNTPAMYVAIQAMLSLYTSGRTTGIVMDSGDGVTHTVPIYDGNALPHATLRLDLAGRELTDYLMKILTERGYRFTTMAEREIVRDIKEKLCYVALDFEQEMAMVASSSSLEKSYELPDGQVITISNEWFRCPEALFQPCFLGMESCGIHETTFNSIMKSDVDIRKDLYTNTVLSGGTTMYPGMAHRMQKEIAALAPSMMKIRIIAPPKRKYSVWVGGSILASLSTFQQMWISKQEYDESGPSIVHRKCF", "settings": "protein POTEJ_HUMAN; 100 nM; q-value 0.001"}, "[6]": {"molecular_target": "kinase targets in WT HL-60 neutrophils (Homo sapiens, UniProt P35609)", "sequence (P35609 whole entry)": "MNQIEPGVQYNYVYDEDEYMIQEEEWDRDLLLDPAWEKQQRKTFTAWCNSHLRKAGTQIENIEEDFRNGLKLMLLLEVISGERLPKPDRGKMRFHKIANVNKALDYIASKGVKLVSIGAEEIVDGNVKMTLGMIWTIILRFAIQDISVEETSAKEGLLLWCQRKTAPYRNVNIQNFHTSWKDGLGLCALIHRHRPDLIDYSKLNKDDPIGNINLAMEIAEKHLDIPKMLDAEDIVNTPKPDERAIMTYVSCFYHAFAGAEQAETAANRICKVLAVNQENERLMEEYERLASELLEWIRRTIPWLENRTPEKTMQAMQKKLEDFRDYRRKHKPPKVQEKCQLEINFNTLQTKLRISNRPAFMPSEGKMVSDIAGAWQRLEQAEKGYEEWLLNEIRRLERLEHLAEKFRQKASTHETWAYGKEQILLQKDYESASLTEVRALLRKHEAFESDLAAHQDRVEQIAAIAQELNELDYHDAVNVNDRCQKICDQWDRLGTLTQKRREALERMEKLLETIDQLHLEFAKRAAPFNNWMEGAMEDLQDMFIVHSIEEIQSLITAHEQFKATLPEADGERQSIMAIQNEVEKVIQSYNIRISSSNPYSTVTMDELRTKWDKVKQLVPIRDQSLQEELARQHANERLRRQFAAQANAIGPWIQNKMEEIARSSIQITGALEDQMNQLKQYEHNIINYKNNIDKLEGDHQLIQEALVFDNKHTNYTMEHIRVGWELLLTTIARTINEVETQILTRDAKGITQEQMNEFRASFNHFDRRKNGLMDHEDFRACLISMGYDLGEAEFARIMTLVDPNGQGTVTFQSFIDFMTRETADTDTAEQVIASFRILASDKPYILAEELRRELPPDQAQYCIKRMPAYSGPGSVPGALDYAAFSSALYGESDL", "settings": "protein ACTN2_HUMAN; 100 nM; q-value 0.740; listed as WEL028"}, "[7]": {"test_system": "kinase targets in WT HL-60 cells", "settings": "Figure 6g"}}, "note": "Where “and” joins values, the source holds several entries; their conditions need not be identical. Equal values may be shown once. Read-outs that look alike come from different tables or passages of the source."}
{"smiles": "C#CCOc1ccc(Nc2ncc(Cl)c(Nc3ccccc3NC(=O)C=C)n2)c(OC)c1", "note": "[Compound 6]", "values": [{"measurement": "Fold enrichment over vehicle", "setting": "[1]", "value": "1.063 and 1.361 and 1.094"}, {"measurement": "Fold enrichment over vehicle", "setting": "[2]", "value": "1.041 and 0.796 and 1.073"}, {"measurement": "GLGB_HUMAN, abundance normalised to mean of vehicle replicates (replicate values)", "setting": "[3]", "value": "1.046 (2×) and 1.279 and 1.081"}, {"measurement": "Phosphorylation of SYK, HS1 and PLCγ2", "setting": "[4]", "value": "completely blocked the phosphorylation"}, {"measurement": "Fold enrichment over vehicle", "setting": "[5]", "value": 0.030}, {"measurement": "Fold enrichment over vehicle", "setting": "[6]", "value": "1.184 and 1.221 and 1.084"}, {"measurement": "Fold enrichment over vehicle", "setting": "[7]; kinase AAK1, listed as WEL028", "value": "3.3495 and 3.6735 and 3.6065"}, {"measurement": "Fold enrichment over vehicle", "setting": "[7]; kinase ADK, listed as WEL028", "value": "39.5823 and 41.6357 and 46.5527"}, {"measurement": "Fold enrichment over vehicle", "setting": "[7]; kinase ADPGK, listed as WEL028", "value": "12.3077 and 12.2613 and 11.9417"}, {"measurement": "Fold enrichment over vehicle", "setting": "[7]; kinase FES, listed as WEL028", "value": "22.028 and 25.2257 and 24.928"}, {"measurement": "Fold enrichment over vehicle", "setting": "[7]; kinase GAK, listed as WEL028", "value": "3.33 and 3.818 and 4.1575"}, {"measurement": "Fold enrichment over vehicle", "setting": "[7]; kinase MAP2K1, listed as WEL028", "value": "13.264 and 14.0967 and 13.9564"}, {"measurement": "Fold enrichment over vehicle", "setting": "[7]; kinase MAP2K2, listed as WEL028", "value": "80.3522 and 87.7266 and 86.7656"}, {"measurement": "Fold enrichment over vehicle", "setting": "[7]; kinase MAP2K3, listed as WEL028", "value": "5.469 and 5.758 and 4.817"}, {"measurement": "Fold enrichment over vehicle", "setting": "[7]; kinase MAP2K5, listed as WEL028", "value": "5.504 and 5.554 and 5.974"}, {"measurement": "Fold enrichment over vehicle", "setting": "[7]; kinase MAP2K7, listed as WEL028", "value": "3.408 and 3.829 and 3.445"}, {"measurement": "Fold enrichment over vehicle", "setting": "[7]; kinase MAP3K7, listed as WEL028", "value": "2.976 and 1.828 and 3.058"}, {"measurement": "Fold enrichment over vehicle", "setting": "[7]; kinase MAPK1, listed as WEL028", "value": "95.4964 and 98.9035 and 99.2992"}, {"measurement": "Fold enrichment over vehicle", "setting": "[7]; kinase MAPK3, listed as WEL028", "value": "3.4335 and 3.699 and 3.773"}, {"measurement": "Fold enrichment over vehicle", "setting": "[7]; kinase MAPK4, listed as WEL028", "value": "3.385 and 3.931 and 3.135"}, {"measurement": "Fold enrichment over vehicle", "setting": "[7]; kinase MAPKAPK5", "value": 0}, {"measurement": "Fold enrichment over vehicle", "setting": "[7]; kinase MLKL, listed as WEL028", "value": "4.914 and 5.604 and 4.99"}, {"measurement": "Fold enrichment over vehicle", "setting": "[7]; kinase NME1, listed as WEL028", "value": "2.1032 and 2.165 and 2.026"}, {"measurement": "Fold enrichment over vehicle", "setting": "[7]; kinase PFKL, listed as WEL028", "value": "52.2098 and 54.8514 and 51.9201"}, {"measurement": "Fold enrichment over vehicle", "setting": "[7]; kinase PFKP, listed as WEL028", "value": "20.548 and 20.448 and 22.286"}, {"measurement": "Fold enrichment over vehicle", "setting": "[7]; kinase PGK1, listed as WEL028", "value": "4.232 and 5.12 and 4.346"}, {"measurement": "Fold enrichment over vehicle", "setting": "[7]; kinase PKM, listed as WEL028", "value": "3.385 and 2.872 and 3.819"}, {"measurement": "Fold enrichment over vehicle", "setting": "[7]; kinase RPS6KA1, listed as WEL028", "value": "8.736 and 6.8169 and 8.606"}, {"measurement": "Fold enrichment over vehicle", "setting": "[7]; kinase RPS6KA3, listed as WEL028", "value": "2.396 and 3.236 and 2.894"}]}
